Data: article PMC12136788
The list shows a part of the results.

T1: UNK ZnF1-3 (human, UniProt Q9C0B0 31-174)
T1 sequence: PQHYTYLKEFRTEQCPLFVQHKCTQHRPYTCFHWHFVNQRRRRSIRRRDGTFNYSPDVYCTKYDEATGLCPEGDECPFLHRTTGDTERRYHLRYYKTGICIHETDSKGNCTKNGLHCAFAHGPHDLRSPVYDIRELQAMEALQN

B1: chr2:128510325:128510326:-_ENSMUSG00000014355_ENSMUST00000014499|mus_mus|FALSE|FALSE (ssRNA)
RNA: GGGAGUUCUACAGUCCGACGAUCGUACACUGCCAGUGCCUGGCUUUUACUCCCUUUGCUCCAGAUAACCAUGUUCCCAGCCACAUAGAGCUCUUCAUCGUAGUCAGCUGCAUCUCCAAUCUCACUCACACCUUUUCUUAACUGCAACAGAGGAUUGAGCAUCA
B2: 54674576_54675259_78_CDS_ENSG00000135486_ENST00000330752|human|control|control (ssRNA)
RNA: GGGAGUUCUACAGUCCGACGAUCCUCAAAAUGGCUCCUCAGGCUCUCAUCAGUUGUUUCAAAGCUCAACCCUCCAAUGAAGAGCUUCCUCAGCUGUUCGGGCUCUUUAGGAGACUCUGACUUAGACAUGACGGCAGGGUGAAGCAACAGAGGAUUGAGCAUCA
B3: chrX:45547847:45547848:-_ENSMUSG00000036985_ENSMUST00000037960|mus_mus|FALSE|FALSE (ssRNA)
RNA: GGGAGUUCUACAGUCCGACGAUCAGGGUCACUGAAACUUGUCCUCAACAGCGUGGCCAUGGAGAAAAGAAAGAGCAUAGCGGCAAACACAGGAAUGGCAGGAGACAGCUGAACAGCCAGGUAGCGACACUCGAAGGCAAAGAACAACAGAGGAUUGAGCAUCA
B4: chr3:10015032:10015033:+_ENSMUSG00000027533_ENSMUST00000029046|mus_mus|mus_mus_mus_hu_True|28_38 (ssRNA)
RNA: GGGAGUUCUACAGUCCGACGAUCGUUUUUACCAUCACAAGUGAUGAUACAAUCUGGCUUGGCCAUUGCGCCCAUUUUUCGCAAAGCUAUUCCCACUCCUAGCUCUUUCAUGUACUCAUCAAAGCCUUUGCUGUCCACCAGGCGCAACAGAGGAUUGAGCAUCA
B5: chr9:87430539:87430540:+_ENSG00000148053_ENST00000359847|hu_hu|motif|central (ssRNA)
RNA: GGGAGUUCUACAGUCCGACGAUCAAAAUGAUUGAAUUCAGCAAGUACAUUUAUGAUCUAUCUACAUUGUUAAAACAGCACGGAAAAUAAAAAUUUUUAAAAUGAUUAUCCAUUAUUUACAGAAAAUGUGGAAAAGAUGGCUUUCAACAGAGGAUUGAGCAUCA
B6: chr4:81121375:81121376:+_ENSG00000152784_ENST00000415738|hu_mus|motif|central (ssRNA)
RNA: GGGAGUUCUACAGUCCGACGAUCUACCCGGAAGAUGUAAGGUACUGUUCUCUUGUCCGUGGACUUGAGGGCUACGAAGGCGGUGCUGUCAUACAGGGAAGUAUGGCUCAGUACACAGGGACCGAAUAUGGCGUUCUCUGGGAUCAACAGAGGAUUGAGCAUCA
B7: chr11:77336104:77336105:-_ENSG00000074201_ENST00000525064|hu_mus|hu_hu_hu_mus_False|68_88 (ssRNA)
RNA: GGGAGUUCUACAGUCCGACGAUCCUCACACAUUGCUGUGAACAUCGCCUCCAACGCUGACUUAUCACUAGGCACAAAUCGAAAUUCAGAAAUGGGUUCAACAUCAUCAUUGUCUUCCUCAUCUUCAUCAGAGAGAGGUUCUUUCAACAGAGGAUUGAGCAUCA
B8: chrX:12171913:12171914:+_ENSMUSG00000031007_ENSMUST00000033313|perfect_dup|FALSE|FALSE (ssRNA)
RNA: GGGAGUUCUACAGUCCGACGAUCCCUGGUAUAGGCCAAUUUCCAUUUCGGAAAACAACAGACCCUGGUGAUUUUAAUAUACUAAACUCGUUCCCCAAAACACCCGCCACCAACGCCAGGAGCACGACAAACACAGCCAUGGUGCAACAGAGGAUUGAGCAUCA
B9: 93960447_93963424_2606_3pUTR_ENSMUSG00000020859_ENSMUST00000103168|mouse|control|control (ssRNA)
RNA: GGGAGUUCUACAGUCCGACGAUCGUACAAUUCCUUUCACAUGUACAAUACUGAGAAUUGAGUCUUUGAGCUUAAUGGAAUGGAGACAUUUCCUCCACUGGGCUACAGAUGAGUGGACAUACAAACAGCCAUUCUGAGCUCCAACAACAGAGGAUUGAGCAUCA
B10: chrX:98862621:98862622:+_ENSMUSG00000034160_ENSMUST00000044475|mus_hu|mus_mus_mus_hu_False|18_58 (ssRNA)
RNA: GGGAGUUCUACAGUCCGACGAUCCUGCAUCUCCUUUAGAGUGUUUCCCAUAUUAGAGUAGGCAUCAGCAAAGGUAGGACUAAUUCGAAUAGCCUCCUUAUAAUGCAUCAGAGCUUCCUGCAGCUUGCCCUGCUGCUGCAGUACCAACAGAGGAUUGAGCAUCA
B11: chr2:103616161:103616162:-_ENSMUSG00000027184_ENSMUST00000111147|mus_hu|motif|central (ssRNA)
RNA: GGGAGUUCUACAGUCCGACGAUCCUCAUCUACCUGCUCCUUUUCACCACUGGUGAACUGUGUUUCUGCCAUGAACUGUCGGUUUACAUACUCUGUUGAUUCAACUUCACUUUGCUCAGUGUACUCUUCUGCUGGCUCAGGUUCCAACAGAGGAUUGAGCAUCA
B12: chr12:110729878:110729879:+_ENSG00000174437_ENST00000539276|hu_hu|motif|central (ssRNA)
RNA: GGGAGUUCUACAGUCCGACGAUCUUCGAUGGCAUUUUCAGCAUUUCUUUCCUGCCAUACACCCACAAUUGCAUUGGCGGCGGAUAUGAGUAAAAUUACAAAAGGUUCUACAAAGGCUGUAAUUGUUUCUUCACCUUCUUCAAACAACAGAGGAUUGAGCAUCA
B13: chr14:78183846:78183847:+_ENSG00000119705_ENST00000557342|hu_hu|hu_hu_hu_mus_False|28_78 (ssRNA)
RNA: GGGAGUUCUACAGUCCGACGAUCUCUCAGAAAUCUUUCUUCAUCAGAUGUUUGAGCUGUUUGCGGAGCCUUUGCUCUUUGAGCUUGAACGUGGAUCUAUGGGAGGGCUAUAAUAUGCAGAAAAGGUAAUUUUUUUUUUAAAGACAACAGAGGAUUGAGCAUCA
B14: 29795611_29795731_792_3pUTR_ENSMUSG00000019715_ENSMUST00000019859|mouse|control|control (ssRNA)
RNA: GGGAGUUCUACAGUCCGACGAUCGCUGCAGGACCUCCUCUUGCAGGGAGUACAGGCUGCGCAGACGGACCUGACCUUCCUCCUUCCGAAGCUGCUCCUGCUCUGCCUGCUUCACACGCUGCUGCUCUGCCUCUCGAAGCUUUACAACAGAGGAUUGAGCAUCA
B15: chr13:24894569:24894570:+_ENSMUSG00000019132_ENSMUST00000019276|mus_mus|motif|central (ssRNA)
RNA: GGGAGUUCUACAGUCCGACGAUCCUGAUUAAUUCUUAGUUAUUUCAGAUUUCACUACUGCUAUGAACUGUCAGUGCUUUGCGGUUGAUUACACUUGGUGGUGAGCAAAGAGAAAAGUGCAAAAUCAGCAGAGAAAGAAGGGGACAACAGAGGAUUGAGCAUCA
B16: chr8:117878989:117878990:-_ENSG00000164754_ENST00000297338|hu_hu|hu_hu_hu_mus_True|8_28 (ssRNA)
RNA: GGGAGUUCUACAGUCCGACGAUCCCAGAGGCCCUCGUUUACUGAGGACAAAAUGUGCGUAGAACAUUUUUCUUAUUUGCUAUGAAAUAAGAAGAAACCUGGAUCUCCCGCUGGGAGCGGGAGGGGUUGGGUGGCCCGGGAGGGCAACAGAGGAUUGAGCAUCA
B17: 219081829_219081949_73_3pUTR_ENSG00000163466_ENST00000315717|human|control|control (ssRNA)
RNA: GGGAGUUCUACAGUCCGACGAUCCGAGCCGCCGCCGCCGCCGCCACUGCCGCUUCACCGACAAGCCCGGUCCCCGCCCAGCCCCCGGCUCUAGCCGGCCACUUCCGCUCUCACACCCACUUCCGCUCGCCGCCUGGACGCGCGCAACAGAGGAUUGAGCAUCA
B18: chr1:244855233:244855234:+_ENSG00000121644_ENST00000302550|hu_mus|hu_hu_hu_mus_True|28_28 (ssRNA)
RNA: GGGAGUUCUACAGUCCGACGAUCCAUCAGAUGGUAGGCGUUGCCCUUAUACUCUUUCCCCAGUUCUUCUACAAUUUUCUCUAUAUCAUCUUCUAGAAAGUCCGUACUCCCUAAAACAACAGCUUCUUUAAAUUUAAAUGUUUCCAACAGAGGAUUGAGCAUCA
B19: 98608890_98609252_2255_CDS_ENSMUSG00000031310_ENSMUST00000121520|mouse|control|control (ssRNA)
RNA: GGGAGUUCUACAGUCCGACGAUCAUCCAGCUGCUCAGUGACACCACGCUGGCAGGUUUGGGAACAGUAAGUACAGGUGAUACAACAUAAGCCCAGCUUCUUAGUAAAAUCUUGCUUGUACAGCAGUACACAGCCUUCACUGCACAACAGAGGAUUGAGCAUCA
B20: chr4:13698614:13698615:+_ENSMUSG00000006586_ENSMUST00000098257|mus_mus|motif|central (ssRNA)
RNA: GGGAGUUCUACAGUCCGACGAUCACUCAGUGCUCUCCAAGUGUUUCUUUUGACAGAUAUCAUUCUCCAGCAAGCGCUGUGCGGAUCUCCUCUGCUGCUCGGACUGGGACCCAGAUAAGUUCACCAGCCCACAGAUCAAUCUUUCAACAGAGGAUUGAGCAUCA
B21: chr7:118218646:118218647:-_ENSMUSG00000005610_ENSMUST00000162415|mus_mus|motif|central (ssRNA)
RNA: GGGAGUUCUACAGUCCGACGAUCUUCCUGUUUGAGUAAACUGAUUAAAGAGCUUGCUUUUUCUUUAUCUUCAUCACUUCGGUCAAGUGACAGGAUGAUCACUUUGCUUAGCAUCUCAGGAAGAAAGUGUUUUGGAGCUCUCAUCAACAGAGGAUUGAGCAUCA
B22: chr13:50590013:50590014:+_ENSG00000204977_ENST00000378182|hu_mus|FALSE|FALSE (ssRNA)
RNA: GGGAGUUCUACAGUCCGACGAUCGGGUCGCUCUACAAACAUUGUAAUCCUCCCACUUAGCAUCUCGAUUGUUUUGCUGCAAGAGCCAAACACUCUGAAGAAGGCUUGAGUAUUUUGGUUUAGGAAAUGGACCUCCAUGACAGCCAACAGAGGAUUGAGCAUCA

The binders below were run against T1, UNK ZnF1-3 (assay: nsRBNS (natural sequence RNA bind-n-seq); RBNS binding buffer (assumed for nsRBNS): 25 mM Tris pH 7.5, 150 mM KCl, 3 mM MgCl2, 0.01% Triton X-100, 500 ug/ml BSA, 20 U/ml SUPERase-In, 4 C; UNK is unkempt and MSI1 is Musashi-1; names of the RNAs are library labels; protein concentration not given here; high values mean tight binding).

Binder | binding signal [enrichment R]
B1 | 0.907
B2 | 0.995
B3 | 2.91
B4 | 0.679
B5 | 1.45
B6 | 1.08
B7 | 1.06
B8 | 1.61
B9 | 1.54
B10 | 0.948
B11 | 0.409
B12 | 0.894
B13 | 1.6
B14 | 0.636
B15 | 1.35
B16 | 1.14
B17 | 1.55
B18 | 1.44
B19 | 1.16
B20 | 0.751
B21 | 0.668
B22 | 0.888
